From patent US7410975B2, “Small molecule toll-like receptor (TLR) antagonists” (Coley Pharmaceutical Group, Inc., priority 2003, dated 2008)
Counter-ions that a name gives are not always drawn.

Each compound was assayed against T1, human TLR7 (hTLR7) (Homo sapiens, UniProt Q9NYK1) (assay: Antagonist screen, hTLR7-NFκB-293 cells, NF-κB-luciferase reporter, with EC50 of R848). Conditions: compound at 0.5, 5, 50 μg/ml, EC50 concentration of R848, 16 h.
T1 construct: expressed in transfected cells
T1 sequence (Q9NYK1 27-1049): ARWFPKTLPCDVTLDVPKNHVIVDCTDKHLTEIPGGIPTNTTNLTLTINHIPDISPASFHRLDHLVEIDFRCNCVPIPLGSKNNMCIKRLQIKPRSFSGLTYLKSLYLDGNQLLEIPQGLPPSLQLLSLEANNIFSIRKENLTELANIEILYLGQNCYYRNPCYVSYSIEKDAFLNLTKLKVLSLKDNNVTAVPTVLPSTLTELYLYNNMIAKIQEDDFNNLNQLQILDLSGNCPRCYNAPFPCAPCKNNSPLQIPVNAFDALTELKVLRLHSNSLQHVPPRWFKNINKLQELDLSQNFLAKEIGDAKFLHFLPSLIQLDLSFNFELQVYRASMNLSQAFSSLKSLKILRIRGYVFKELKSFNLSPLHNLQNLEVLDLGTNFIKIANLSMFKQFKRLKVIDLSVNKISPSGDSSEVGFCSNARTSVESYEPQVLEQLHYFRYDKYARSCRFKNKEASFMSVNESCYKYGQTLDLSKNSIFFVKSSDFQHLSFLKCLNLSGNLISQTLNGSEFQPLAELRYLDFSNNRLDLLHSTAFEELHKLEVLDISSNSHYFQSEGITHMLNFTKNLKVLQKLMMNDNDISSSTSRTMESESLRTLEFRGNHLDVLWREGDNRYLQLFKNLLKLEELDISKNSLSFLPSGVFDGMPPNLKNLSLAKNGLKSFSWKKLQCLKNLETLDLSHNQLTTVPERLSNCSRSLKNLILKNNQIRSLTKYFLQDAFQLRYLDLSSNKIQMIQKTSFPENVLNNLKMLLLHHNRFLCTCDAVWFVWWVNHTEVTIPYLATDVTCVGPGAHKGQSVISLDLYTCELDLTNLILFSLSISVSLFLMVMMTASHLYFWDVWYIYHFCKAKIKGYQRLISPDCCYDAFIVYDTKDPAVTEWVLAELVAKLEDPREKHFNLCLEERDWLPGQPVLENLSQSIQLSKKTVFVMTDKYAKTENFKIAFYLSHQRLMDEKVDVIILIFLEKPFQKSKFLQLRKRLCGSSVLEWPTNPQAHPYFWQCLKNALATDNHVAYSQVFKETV
Assay type: cell-based
Experimental: The method is described in greater detail as follows. The cells for each individual cell clone (hTLR3-NFκB-293, hTLR7-NFκB-293, hTLR8-NFκB-293 and hTLR9-NFκB-293) were counted and seeded one day before the stimulation at 1.5×10^4 cells per well in 96-well cell culture plates. To become adherent the cells were incubated after seeding overnight at 37° C. in 5% CO2 humidified air.
The screen for each compound was performed at the same time for all of the receptors TLR3, TLR7, TLR8 and TLR9. Up to fifteen test compounds, each assayed in duplicate at each of three different final concentrations (0.5 μg/ml, 5 μg/ml, and 50 μg/ml), were used for 16 h cell stimulation on a single multiwell culture plate. A 4× final concentration master plate was created to prepare the different test compounds before they were added to the cells.
Controls were added as duplicates individually for each cell clone on the cell culture plate. Positive controls were used as follows (final concentrations): 50 μg/ml poly(I:C) for hTLR3-NFκB-293; 8 μM resiquimod (R848) for hTLR7-NFκB-293; 30 μM R848 for hTLR8-NFκB-293; and 2.5 μM CpG-ODN 2006 for hTLR9-NFκB-293. Media alone was used as negative control. After addition of controls and small molecules, the cell clones were additionally stimulated with the EC50 concentration of the appropriate receptor-specific ligand. […]
The baseline result (measured with addition of the EC50 concentration of the receptor-specific ligand) for each cell culture plate was measured as described above. Antagonistic effects were measured by down regulation compared to the baseline. Antagonists were scored as follows: • 13: compounds for which there was clear down regulation at 0.5 μg/ml, 5 μg/ml, and 50 μg/ml; • 12: compounds for which there was clear down regulation at 5 μg/ml and 50 μg/ml; • 11: compounds for which there was clear down regulation only at 50 μg/ml; • —: compounds for which there was no clear down regulation even at 50 μg/ml. […]
Results were expressed as fold induction over baseline luciferase activity measured in the absence of R848. […]
`CN1CCN2c3ccccc3Cc3ccccc3C2C1.Cl` (stereo not drawn) [compound 99, Mianserinehydrochloride] was tested, and the “hTLR7 (inhibitory effect, antagonist score)” value was “— (compounds for which there was no clear down regulation even at 50 μg/ml)”.
In the case of `Cc1ccccc1C(OCCN(C)C)c1ccccc1` (stereo not drawn) [compound 239, Orphenadrinehydrochloride], the “hTLR7 (inhibitory effect, antagonist score)” value is reported as “— (compounds for which there was no clear down regulation even at 50 μg/ml)”.
With `CN1CCC[C@@H]1CCO[C@](C)(c1ccccc1)c1ccc(Cl)cc1.O=C(O)/C=C/C(=O)O` [compound 306, Clemastine fumarate] the “hTLR7 (inhibitory effect, antagonist score)” value was 12 (compounds for which there was clear down regulation at 5 μg/ml and 50 μg/ml).
